Reference: article PMC6212398, “Competing protein-protein interactions regulate binding of Hsp27 to its client protein tau” (Nature Communications, 2018)
Results are given in words; binding and its absence hold for the method and conditions named. Some results given as binding are weak or reduced against the parent protein; the word gives no strength.

Chains of the proteins cited; added tags and fusions are not shown. Lines headed by an entry give the natural chain unless they say otherwise; changes in a name come on top. Residues count along the entry.
UniProt P04792: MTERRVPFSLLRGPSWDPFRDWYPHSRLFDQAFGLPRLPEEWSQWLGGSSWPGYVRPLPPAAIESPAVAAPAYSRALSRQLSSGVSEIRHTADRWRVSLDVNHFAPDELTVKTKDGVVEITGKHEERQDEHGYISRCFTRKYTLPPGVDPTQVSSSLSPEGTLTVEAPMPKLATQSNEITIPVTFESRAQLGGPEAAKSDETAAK
Hsp27 alpha-crystallin domain (ACD, residues Q80–S176): residues 80-176 of P04792

Assays:
[1] = molecular target: Hsp27 alpha-crystallin domain (ACD, residues Q80–S176) (human) (UniProt P04792); test: NMR titration; titration of the 6-mer PHF6* peptide into 15N Hsp27 ACD, 1H-15N spectra (Supplementary Figure 3D); both purified
[2] = molecular target: Hsp27 alpha-crystallin domain (ACD, residues Q80–S176) (human) (UniProt P04792); test: NMR titration; 1H-15N HSQC of 15N Hsp27 ACD (150 µM) alone or with 250 µM K18, 0N4R or Hsp27 IPV peptide; 50 mM sodium phosphate, 100 mM NaCl, pH 7.4; 32 °C; both purified
[3] = molecular target: full-length human Hsp27 (wild type) (human) (UniProt P04792); test: condition: peptide (1 mM) titrated into 100 µM Hsp27; ITC; peptide (1 mM) titrated into a cell with Hsp27 proteins (100 µM); SEC buffer (50 mM sodium phosphate, 100 mM NaCl); 25 °C; one-site binding model; both purified

## VQIVYK [6-mer PHF6* peptide (VQIVYK)]
[1]
  binding: binds weakly

## EITIPVTFE [Hsp27 IPV peptide (native 9-mer …)]
[2]
  binding: binds weakly

## EITIPVTHE [Hsp27 IPV H peptide (…)]
[3]
  binding: no binding
